Experimental data taken from the supplement of paper PMC8728848.
The other results are listed elsewhere or left out.

Key:
Experiment in all cases: glycan array binding signal (z-score within array); higher = stronger binding
Conditions in all cases: glycan notation: IUPAC condensed, linker removed
Gal(b1-2)Gal = target: Gal(b1-2)Gal
In short: (§1)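 Glycan array data were curated from 3228 arrays in the Consortium for Functional Glycomics database and kept only where the protein sequence was available. Glycan names were converted to IUPAC-condensed notation, and columns mapping to the same glycan were averaged. The binding signal is a within-array Z-score, averaged across arrays of the same protein sequence at different concentrations or buffers and across linkers. Negative Z-scores can be read as non-binding.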

Gal(b1-3)Gal = target: Gal(b1-3)Gal
In short: as §1

Gal(b1-3)Gal(b1-4)GlcNAc = target: Gal(b1-3)Gal(b1-4)GlcNAc
In short: as §1

Gal(b1-3)GalNAc = target: Gal(b1-3)GalNAc
In short: as §1

[1] = target: Gal(b1-3)GalNAc(a1-3)[Fuc(a1-2)]Gal(b1-4)Glc
In short: as §1

[2] = target: Gal(b1-3)GalNAc(a1-3)[Fuc(a1-2)]Gal(b1-4)GlcNAc
In short: as §1

Gal(b1-3)GalNAc(b1-3)Gal = target: Gal(b1-3)GalNAc(b1-3)Gal
In short: as §1

[3] = target: Gal(b1-3)GalNAc(b1-3)Gal(a1-4)Gal(b1-4)Glc
In short: as §1

[4] = target: Gal(b1-3)GalNAc(b1-4)Gal(b1-4)Glc
In short: as §1

[5] = target: Gal(b1-3)GalNAc(b1-4)[Neu5Ac(a2-3)]Gal(b1-4)Glc
In short: as §1

Gal(b1-3)GlcNAc = target: Gal(b1-3)GlcNAc
In short: as §1

[6] = target: Gal(b1-3)GlcNAc(a1-3)Gal(b1-4)GlcNAc
In short: as §1

[7] = target: Gal(b1-3)GlcNAc(a1-6)Gal(b1-4)GlcNAc
In short: as §1

Gal(b1-3)GlcNAc(b1-2)Man = target: Gal(b1-3)GlcNAc(b1-2)Man
In short: as §1

[8] = target: Gal(b1-3)GlcNAc(b1-2)Man(a1-3)[Gal(b1-3)GlcNAc(b1-2)Man(a1-6)]Man(b1-4)GlcNAc(b1-4)GlcNAc
In short: as §1

[9] = target: Gal(b1-3)GlcNAc(b1-2)Man(a1-3)[Gal(b1-3)GlcNAc(b1-2)Man(a1-6)]Man(b1-4)GlcNAc(b1-4)[Fuc(a1-6)]GlcNAc
In short: as §1

[10] = target: Gal(b1-3)GlcNAc(b1-2)Man(a1-3)[GlcNAc(b1-4)][Gal(b1-3)GlcNAc(b1-2)Man(a1-6)]Man(b1-4)GlcNAc(b1-4)GlcNAc
In short: as §1

[11] = target: Gal(b1-3)GlcNAc(b1-2)[Gal(b1-3)GlcNAc(b1-6)]Man(a1-6)[Gal(b1-3)GlcNAc(b1-2)Man(a1-3)]Man(b1-4)GlcNAc(b1-4)GlcNAc
In short: as §1

[12] = target: Gal(b1-3)GlcNAc(b1-3)Gal(b1-3)GlcNAc
In short: as §1

[13] = target: Gal(b1-3)GlcNAc(b1-3)Gal(b1-4)Glc
In short: as §1

[14] = target: Gal(b1-3)GlcNAc(b1-3)Gal(b1-4)GlcNAc
In short: as §1

[15] = target: Gal(b1-3)GlcNAc(b1-3)Gal(b1-4)GlcNAc(b1-2)Man(a1-3)[Gal(b1-3)GlcNAc(b1-3)Gal(b1-4)GlcNAc(b1-2)Man(a1-6)]Man(b1-4)GlcNAc(b1-4)GlcNAc
In short: as §1

[16] = target: Gal(b1-3)GlcNAc(b1-3)Gal(b1-4)GlcNAc(b1-2)[Gal(b1-3)GlcNAc(b1-3)Gal(b1-4)GlcNAc(b1-6)]Man(a1-6)[Gal(b1-3)GlcNAc(b1-3)Gal(b1-4)GlcNAc(b1-2)Man(a1-3)]Man(b1-4)GlcNAc(b1-4)[Fuc(a1-6)]GlcNAc
In short: as §1

[17] = target: Gal(b1-3)GlcNAc(b1-3)Gal(b1-4)GlcNAc(b1-3)Gal(b1-4)GlcNAc(b1-2)[Gal(b1-3)GlcNAc(b1-3)Gal(b1-4)GlcNAc(b1-3)Gal(b1-4)GlcNAc(b1-6)]Man(a1-6)[Gal(b1-3)GlcNAc(b1-3)Gal(b1-4)GlcNAc(b1-3)Gal(b1-4)GlcNAc(b1-2)Man(a1-3)]Man(b1-4)GlcNAc(b1-4)[Fuc(a1-6)]GlcNAc
In short: as §1

[18] = target: Gal(b1-3)GlcNAc(b1-3)Gal(b1-4)GlcNAc(b1-6)[Gal(b1-3)GlcNAc(b1-3)]Gal(b1-4)Glc
In short: as §1

[19] = target: Gal(b1-3)GlcNAc(b1-3)Gal(b1-4)[Fuc(a1-3)]GlcNAc
In short: as §1

[20] = target: Gal(b1-3)GlcNAc(b1-3)Gal(b1-4)[Fuc(a1-3)]GlcNAc(b1-6)[Gal(b1-3)GlcNAc(b1-3)]Gal(b1-4)Glc
In short: as §1

[21] = target: Gal(b1-3)GlcNAc(b1-3)GalNAc
In short: as §1

[22] = target: Gal(b1-3)GlcNAc(b1-6)Gal(b1-4)GlcNAc
In short: as §1

[23] = target: Gal(b1-3)GlcNAc(b1-6)GalNAc
In short: as §1

[24] = target: Gal(b1-3)GlcNAc(b1-6)[Gal(b1-3)]GalNAc
In short: as §1

Gal(b1-3)GlcNAc6S = target: Gal(b1-3)GlcNAc6S
In short: as §1

[25] = target: Gal(b1-3)[Fuc(a1-4)]GlcNAc
In short: as §1

[26] = target: Gal(b1-3)[Fuc(a1-4)]GlcNAc(b1-2)Man
In short: as §1

[27] = target: Gal(b1-3)[Fuc(a1-4)]GlcNAc(b1-2)Man(a1-3)[Gal(b1-3)[Fuc(a1-4)]GlcNAc(b1-2)Man(a1-6)]Man(b1-4)GlcNAc(b1-4)[Fuc(a1-6)]GlcNAc
In short: as §1

[28] = target: Gal(b1-3)[Fuc(a1-4)]GlcNAc(b1-3)Gal(b1-3)[Fuc(a1-4)]GlcNAc
In short: as §1

[29] = target: Gal(b1-3)[Fuc(a1-4)]GlcNAc(b1-3)Gal(b1-4)[Fuc(a1-3)]GlcNAc
In short: as §1

[30] = target: Gal(b1-3)[Fuc(a1-4)]GlcNAc(b1-6)GalNAc
In short: as §1

[31] = target: Gal(b1-3)[GlcNAc(b1-6)]GalNAc
In short: as §1

[32] = target: Gal(b1-3)[Neu5Ac(a2-6)]GalNAc
In short: as §1

[33] = target: Gal(b1-3)[Neu5Ac(a2-6)]GlcNAc(b1-4)Gal(b1-4)Glc
In short: as §1

[34] = target: Gal(b1-3)[Neu5Ac(b2-6)]GalNAc
In short: as §1

Gal(b1-4)Gal = target: Gal(b1-4)Gal
In short: as §1

[35] = target: Gal(b1-4)GalNAc(a1-3)[Fuc(a1-2)]Gal(b1-4)GlcNAc
In short: as §1

[36] = target: Gal(b1-4)GalNAc(b1-3)[Fuc(a1-2)]Gal(b1-4)GlcNAc
In short: as §1

B1: PX9937F-bfa-516-16-516 (Bacteroides fragilis) (protein)
chain: LDIDPTSSIADSNYWKTEAQFSTFNVGLHALLRECSFNFFLLGEPRADIYGDVPFGGEATQGMERLPFNTINKENTGISNFAGMYKVINQINLMIAKTKETTVLSEAGKNYYLGEAYGMRAYLYFHLLRSWGDVILYLDYTNGASLDLSNLSKAASPAEEVMKQIKEDITASEKGFGSDYSFKYGRYYWSMAATQMLKGEVYLWSGRQMGGGTADYTTAKTALQSIVSNANVSLQDDFSKVFAYNNKDNSEIIFSIRNAKDEYNMWDDRFRQNLVPQQAYMTSTYCNKEGVSFKDLPEGQLNGLIRLQIRYDLYNKAFRDGDTRKDASMTAVYQKQQDGTVKYIAPFCNKYQGVLLDGASQRSFLNDYPIYRYADCLLLLAEAKALLGEDPTAEINQVRERAYGKEFFEANKATLAYPNDKGDFYTDNKYMSGDEDPLEAILKERMREFMFEGKRWYDLRLLGADYVTKRTSAVATRLLWPINESVLTDNPALKQTPGYQN
- glycan array binding signal (z-score) (Gal(b1-2)Gal): -0.196
- glycan array binding signal (z-score) (Gal(b1-3)Gal): -0.15
- glycan array binding signal (z-score) (Gal(b1-3)Gal(b1-4)GlcNAc): -0.229
- glycan array binding signal (z-score) (Gal(b1-3)GalNAc): -0.035
- glycan array binding signal (z-score) [1]: -0.339
- glycan array binding signal (z-score) [2]: -0.198
- glycan array binding signal (z-score) (Gal(b1-3)GalNAc(b1-3)Gal): -0.083
- glycan array binding signal (z-score) [3]: -0.322
- glycan array binding signal (z-score) [4]: -0.093
- glycan array binding signal (z-score) [5]: -0.231
- glycan array binding signal (z-score) (Gal(b1-3)GlcNAc): -0.207
- glycan array binding signal (z-score) [6]: 0.755
- glycan array binding signal (z-score) [7]: -0.245
- glycan array binding signal (z-score) (Gal(b1-3)GlcNAc(b1-2)Man): -0.2
- glycan array binding signal (z-score) [8]: -0.047
- glycan array binding signal (z-score) [9]: 0.833
- glycan array binding signal (z-score) [10]: 0.179
- glycan array binding signal (z-score) [11]: -0.137
- glycan array binding signal (z-score) [12]: -0.041
- glycan array binding signal (z-score) [13]: -0.072
- glycan array binding signal (z-score) [14]: -0.402
- glycan array binding signal (z-score) [15]: -0.167
- glycan array binding signal (z-score) [16]: 7.79
- glycan array binding signal (z-score) [17]: 0.635
- glycan array binding signal (z-score) [18]: -0.142
- glycan array binding signal (z-score) [19]: -0.014
- glycan array binding signal (z-score) [20]: -0.388
- glycan array binding signal (z-score) [21]: -0.319
- glycan array binding signal (z-score) [22]: -0.358
- glycan array binding signal (z-score) [23]: -0.477
- glycan array binding signal (z-score) [24]: -0.223
- glycan array binding signal (z-score) (Gal(b1-3)GlcNAc6S): -0.283
- glycan array binding signal (z-score) [25]: -0.212
- glycan array binding signal (z-score) [26]: 0.5
- glycan array binding signal (z-score) [27]: -0.1
- glycan array binding signal (z-score) [28]: -0.143
- glycan array binding signal (z-score) [29]: -0.307
- glycan array binding signal (z-score) [30]: 1.88
- glycan array binding signal (z-score) [31]: -0.315
- glycan array binding signal (z-score) [32]: -0.269
- glycan array binding signal (z-score) [33]: 0.05
- glycan array binding signal (z-score) [34]: -0.274
- glycan array binding signal (z-score) (Gal(b1-4)Gal): -0.182
- glycan array binding signal (z-score) [35]: -0.222
- glycan array binding signal (z-score) [36]: 1.14
